# Several values for one entry are separate records, joined by “and”; a condition that tells them apart may be missing. Equal entries are not always repeated. Out of some 360,000 compounds screened, about 25,000 (6.9%) were called active. Inconclusive means that the source gave no clear call. Such entries were picked first, then a sample of the others. The call rests on the fitted dose curve; in most records, active means well fitted inhibition curve with a large enough effect; inconclusive means small, poorly fitted or top-dose-only effect; inactive means flat fitted curve, though single readings scatter. Where the call is inconclusive, the potency comes from a doubtful curve fit.
# Biological target: Luciferin 4-monooxygenase (Photinus pyralis) (UniProt P08659)
# Assay: qHTS profiling assay for firefly luciferase inhibitor/activator using purifed enzyme and Km concentrations of substrates (counterscreen for miR-21 project); further: nearly all actives have a fitted effect of over 55% in size
# Details: purified FLuc, luminescence inhibition; series mostly up to 57.5 µM
# Method in brief: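 Purified P. pyralis luciferase (10nM final) with 10uM D-luciferin and 10uM ATP (Km levels) in 50mM Tris acetate pH 7.5, 10mM Mg acetate, 0.01% Tween-20, 0.05% BSA; qHTS 6-point titration, ~60 µM downward; luminescence read.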
# Potency means the concentration at half of the fitted maximal effect; tags describe the fitted curve by direction and shape.
# UniProt P08659, sequence (P08659 whole entry, looked up): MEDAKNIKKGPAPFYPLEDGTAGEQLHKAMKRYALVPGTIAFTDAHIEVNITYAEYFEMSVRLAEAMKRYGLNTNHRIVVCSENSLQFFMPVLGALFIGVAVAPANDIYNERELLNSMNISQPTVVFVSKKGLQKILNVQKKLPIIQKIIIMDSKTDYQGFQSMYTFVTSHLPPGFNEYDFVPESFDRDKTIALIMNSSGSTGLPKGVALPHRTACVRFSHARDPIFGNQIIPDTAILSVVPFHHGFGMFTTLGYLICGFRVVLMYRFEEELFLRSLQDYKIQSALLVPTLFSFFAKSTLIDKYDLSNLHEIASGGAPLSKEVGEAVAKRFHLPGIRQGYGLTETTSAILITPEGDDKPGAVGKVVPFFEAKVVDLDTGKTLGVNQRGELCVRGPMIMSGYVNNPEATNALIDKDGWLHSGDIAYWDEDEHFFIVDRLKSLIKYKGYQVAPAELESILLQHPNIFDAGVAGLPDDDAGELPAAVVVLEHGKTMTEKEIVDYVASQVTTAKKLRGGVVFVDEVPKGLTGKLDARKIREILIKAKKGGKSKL
row,Structure (SMILES),Potency
1,CCOc1ccc(C2CC(c3c(O)c4ccccc4oc3=O)=NN2c2ccccc2)cc1OC (stereo unspecified),"inconclusive: 21.3 µM [inhibitor, partial curve]"
2,CC(=O)c1ccc(-n2c(C)c(C(C)=O)c3cc(O)ccc32)cc1,inactive
3,COc1ccc(C(=O)CC(Nc2ccc([N+](=O)[O-])cc2)c2ccc(Cl)cc2)cc1 (stereo unspecified),"inconclusive: 37.9 µM [inhibitor, partial curve, poor fit]"
4,COc1cccc(Nc2ncnc3nc[nH]c23)c1,active: 19 µM
5,Oc1c(N=NC(=S)Nc2ccccc2F)c2ccccc2n1Cc1ccc(F)cc1,inactive
6,CCC(C)(C)C1CCC2(CC1)NC(=O)N(CC(=O)N(C)CC(=O)Nc1ccccc1C(F)(F)F)C2=O (stereo unspecified),"inconclusive: 37.9 µM [inhibitor, partial curve, poor fit]"
7,CCn1c(C)nc2cc(C(=O)NNS(=O)(=O)c3c(F)cc(F)c(Cl)c3F)ccc21,"inconclusive: 37.9 µM [inhibitor, partial curve, poor fit]"
8,Cc1ccc(S(=O)(=O)/N=C(\N)Nc2nc(C)c3cc(C)ccc3n2)cc1,"inconclusive: 26.9 µM [inhibitor, partial curve, poor fit]"
9,CC(=O)Nc1ccc(S(=O)(=O)N2CCC(C(=O)NCc3cccnc3)CC2)cc1,inactive
10,Cc1cnc(NC(=O)/C=C/c2ccc(Br)o2)s1,inactive
11,Cc1ccc(/C=N/NC(=O)C2COc3ccccc3O2)s1 (stereo unspecified),"inconclusive: 30.1 µM [inhibitor, partial curve, poor fit]"
12,CN(C1CCCCC1)S(=O)(=O)c1ccc2c(c1)c(=O)c(C(=O)NCc1ccc(Cl)cc1)cn2C,inactive
13,COc1cccc(/C=N/Nc2ncc(C(F)(F)F)cc2Cl)c1O,inactive
14,COc1ccc(C(=O)Nc2cccc(OC(=O)c3ccco3)c2)cc1,active: 13.5 µM
15,CCOCCCNC(=O)Cn1nc(-c2ccccc2)ccc1=O,"inconclusive: 21.3 µM [inhibitor, partial curve, poor fit]"
16,CCN(c1ncnc2c1cnn2-c1cccc(Cl)c1)C1CCCCC1,active: 3.79 µM
17,CCCOC(=O)c1cc(-c2ccc(C=O)o2)ccc1Cl,"inconclusive: 26.9 µM [inhibitor, partial curve, poor fit]"
18,CCN1CCc2c(C#N)c(NCc3ccccc3)nc(N(CC)CC)c2C1,inactive
19,COc1ccc(NC(=O)CSc2nccn2Cc2ccccc2)cc1,"inconclusive: 15.1 µM [inhibitor, single point]"
20,COC(=O)Nc1ccc2c(c1)Nc1ccccc1CC2,"inconclusive: 37.9 µM [inhibitor, single point]"
21,Cc1ccc(C(C)NC(=O)c2ccncc2)c(C)c1 (stereo unspecified),inactive
22,CCOc1ccccc1C(=O)N[C@H](C(=O)Nc1nc2c(s1)CCCC2)C(C)C,"inconclusive: 37.9 µM [inhibitor, partial curve, poor fit]"
23,COc1ccccc1NC(=O)c1ccc(-c2ccccc2[N+](=O)[O-])o1,active: 10.7 µM
24,COc1ccccc1CNC(=O)CS(=O)(=O)Cc1nc(-c2ccccc2C)oc1C,"inconclusive: 23.9 µM [inhibitor, partial curve, poor fit]"
25,Cc1c(/C=N\NC(=O)c2cccc(F)c2)cnn1C,"inconclusive: 16.9 µM [inhibitor, partial curve, poor fit]"
26,CC(C)CCNC(=O)CSc1nc2ccccc2nc1Cc1ccc(Cl)cc1,inactive

row,Structure (SMILES),Potency
1,CN(C)c1ccc(C(=O)NCc2ccc3c(c2)CCN3C(=O)c2ccccc2)cc1,"inconclusive: 23.9 µM [inhibitor, partial curve, poor fit]"
2,Nc1[nH]n2c(=O)c3c(nc2c1N=Nc1ccccc1)CCCC3,"inconclusive: 37.9 µM [inhibitor, single point]"
3,COC(=O)c1sccc1NC(=O)NC1CCCCC1,"inconclusive: 37.9 µM [inhibitor, partial curve, poor fit]"
4,Cn1cccc1/C=C1\SC(=Nc2ccc(O)cc2)NC1=O,"inconclusive: 9.53 µM [inhibitor, partial curve]"
5,O=C(Cn1ncc(N2CCCC2)c(Br)c1=O)c1ccc(Cl)cc1,active: 19 µM
6,COc1ccc(C(=O)Nc2ccc([N+](=O)[O-])cn2)c(OC)c1,active: 0.301 µM
7,COc1ccc(C(=O)Cc2ccc(OC)c(OC)c2)cc1,"inconclusive: 23.9 µM [inhibitor, single point]"
8,C=CCn1c(=S)[nH]c2sc3c(c2c1=O)CCC3,"inconclusive: 23.9 µM [inhibitor, single point]"
9,COC(=O)/C(=C\Nc1ccc(OC)cc1)NC(=O)c1ccc(Cl)cc1Cl,"inconclusive: 23.9 µM [inhibitor, partial curve, poor fit]"
10,COc1ccccc1NS(=O)(=O)c1cccc(C(=O)NCc2ccncc2)c1,inactive
11,O=C(CSc1nnc(SCc2cccc3ccccc23)s1)N/N=C/C=C/c1ccccc1[N+](=O)[O-],"inconclusive: 3.38 µM [inhibitor, partial curve, poor fit]"
12,CN(C(=O)Nc1ccc(Cl)cc1)c1c2c(nn1C)CCCC2,inactive
13,CC(C)(C)C1CCc2c(sc(NC(=O)c3ccncc3)c2C(N)=O)C1 (stereo unspecified),active: 2.69 µM
14,O=C(NNC(=S)Nc1ccccc1)NNC(=S)Nc1ccccc1,inactive
15,O=C(C1CCCN(Cc2ccccc2Cl)C1)N1CCCCC1 (stereo unspecified),inactive
16,Cc1ccn2c(Nc3ccccc3C)c(-c3ccccc3)nc2c1,"inconclusive: 23.9 µM [inhibitor, partial curve]"
17,O=C(Nc1ccc2nc(SCC(=O)N3CCOCC3)sc2c1)c1ccccc1Cl,active: 21.3 µM
18,O=C(O)/C(=C\c1ccc(-c2ccc(F)cc2)o1)c1ccccc1,"inconclusive: 26.9 µM [inhibitor, single point]"
19,COc1ccccc1NC(=O)CSc1nnnn1-c1ccccc1F,inactive
20,CCN(CCNC(=O)CN(C)S(=O)(=O)c1cccc2nsnc12)c1ccccc1,inactive
21,O=C(O)CCSc1ccc2ccccc2n1,active: 16.9 µM and active: 23.9 µM
22,O=C(O)Cn1c(SCCOc2ccc(Cl)cc2)nc2ccccc21,"inconclusive: 21.3 µM [inhibitor, single point]"
23,COc1ccc2cc(C(=O)CS(=O)(=O)c3ccccc3)c(=O)oc2c1,active: 0.953 µM
24,CCCn1c(-c2cccs2)nc2nc3ccccc3nc21,"inconclusive: 21.3 µM [inhibitor, partial curve]"
25,COc1ccccc1-c1cc(C(=O)N/N=C/C=C/c2ccccc2[N+](=O)[O-])c2ccccc2n1,inactive
26,Cc1cccc(NC(=O)c2c(N)sc3c2CCC(C)C3)c1 (stereo unspecified),"inconclusive: 7.57 µM [inhibitor, partial curve]"

row,Structure (SMILES),Potency
1,CCCCOC(=O)CSc1nc2ccccc2o1,"inconclusive: 30.1 µM [inhibitor, partial curve, poor fit]"
2,COc1ccc(-c2cccc(NS(=O)(=O)c3cc(C)ccc3OC)c2)nn1,inactive
3,CC1(C)CC(O)C(C(O)c2cccc([N+](=O)[O-])c2)C(C)(C)N1 (stereo unspecified),inactive
4,O=C(N/N=C1\CCS(=O)(=O)c2ccc(F)cc21)c1ccc(O)cc1,"inconclusive: 26.9 µM [inhibitor, partial curve, poor fit]"
5,CCc1ccc(Nc2ncc3c(n2)CC(c2ccc(OC)cc2)CC3=O)cc1 (stereo unspecified),inactive
6,Cc1ccccc1Nc1c(-c2ccc(N3CCOCC3)cc2)nc2ccc(Cl)cn12,active: 2.39 µM
7,CC1=NN(C(=O)COc2cc(C)ccc2C(C)C)C(O)(c2ccccc2)C1 (stereo unspecified),inactive
8,O=C(Cn1nnc(-c2ccccc2F)n1)Nc1ccc2c(c1)OCCO2,"inconclusive: 21.3 µM [inhibitor, single point]"
9,C[N+]1=C(/C=C/Nc2ccccc2Cl)C(C)(C)c2ccccc21,"inconclusive: 26.9 µM [inhibitor, single point]"
10,Cc1cccc(/C=C2\CCC(=C3SCCCS3)C2=O)c1,active: 0.0849 µM
11,Cc1ccc(CNC(=O)CCCn2c(=O)c3ccccc3n(Cc3ccc(Cl)cc3)c2=O)cc1,inactive
12,O=C(NC1CCCCCCC1)NC1CCCCC1,active: 16.9 µM
13,CCSc1nnc(-c2ccccc2SC)o1,"inconclusive: 26.9 µM [inhibitor, partial curve, poor fit]"
14,Cc1ccc(CNC(=O)CCC(=O)N2CCSc3ccccc32)cc1,inactive
15,COc1ccccc1NC(=O)C1CCCN1C(=O)Nc1ccc(F)cc1 (stereo unspecified),inactive
16,Cc1ccc(-c2nc3cc(C(C)C)ccc3o2)cc1NC(=O)c1cc([N+](=O)[O-])ccc1N1CCOCC1,active: 1.35 µM
17,Cc1c(O)ccc(/C(Cc2ccc3ccccc3n2)=N\O)c1O,inactive
18,COc1ccccc1OC(C)C(=O)Nc1ccc(S(=O)(=O)N2CCN(C)CC2)cc1 (stereo unspecified),inactive
19,COc1ccc(OC)c(/C=C/C(=O)N(C)CC(=O)Nc2ccc(N3CCOCC3)cc2)c1,"inconclusive: 26.9 µM [inhibitor, partial curve, poor fit]"
20,O=C(COC(=O)C1CCC1)NCc1ccc(Cl)cc1Cl,active: 16.9 µM
21,Cc1csc(=NC(=O)c2ccccc2)n1Cc1ccco1,"inconclusive: 21.3 µM [inhibitor, single point]"
22,Cc1cc(-c2nc3ccccc3o2)c2ccccc2n1,"inconclusive: 23.9 µM [inhibitor, partial curve]"
23,Cc1ccc(NC(=O)CSCC(=O)Nc2ccc(N3CCOCC3)c(Cl)c2)cc1,"inconclusive: 21.3 µM [inhibitor, partial curve]"
24,COCc1cc(C)nc2sc(C(=O)Nc3cc(C)ccc3F)c(N)c12,"inconclusive: 30.1 µM [inhibitor, partial curve, poor fit]"

# From PubChem BioAssay AID588342 (National Center for Advancing Translational Sciences (NCATS), 2011)
